Experimental findings from the supplement of paper PMC3334620 are described below.

Over roughly 33,000 sequences, “E-score (-0.5 to 0.5)” has its median near -0.021; the highest 2% begin near 0.32. This is one part of the list.

The target in this test is T1, Zap1 (UniProt P47043).
T1 sequence: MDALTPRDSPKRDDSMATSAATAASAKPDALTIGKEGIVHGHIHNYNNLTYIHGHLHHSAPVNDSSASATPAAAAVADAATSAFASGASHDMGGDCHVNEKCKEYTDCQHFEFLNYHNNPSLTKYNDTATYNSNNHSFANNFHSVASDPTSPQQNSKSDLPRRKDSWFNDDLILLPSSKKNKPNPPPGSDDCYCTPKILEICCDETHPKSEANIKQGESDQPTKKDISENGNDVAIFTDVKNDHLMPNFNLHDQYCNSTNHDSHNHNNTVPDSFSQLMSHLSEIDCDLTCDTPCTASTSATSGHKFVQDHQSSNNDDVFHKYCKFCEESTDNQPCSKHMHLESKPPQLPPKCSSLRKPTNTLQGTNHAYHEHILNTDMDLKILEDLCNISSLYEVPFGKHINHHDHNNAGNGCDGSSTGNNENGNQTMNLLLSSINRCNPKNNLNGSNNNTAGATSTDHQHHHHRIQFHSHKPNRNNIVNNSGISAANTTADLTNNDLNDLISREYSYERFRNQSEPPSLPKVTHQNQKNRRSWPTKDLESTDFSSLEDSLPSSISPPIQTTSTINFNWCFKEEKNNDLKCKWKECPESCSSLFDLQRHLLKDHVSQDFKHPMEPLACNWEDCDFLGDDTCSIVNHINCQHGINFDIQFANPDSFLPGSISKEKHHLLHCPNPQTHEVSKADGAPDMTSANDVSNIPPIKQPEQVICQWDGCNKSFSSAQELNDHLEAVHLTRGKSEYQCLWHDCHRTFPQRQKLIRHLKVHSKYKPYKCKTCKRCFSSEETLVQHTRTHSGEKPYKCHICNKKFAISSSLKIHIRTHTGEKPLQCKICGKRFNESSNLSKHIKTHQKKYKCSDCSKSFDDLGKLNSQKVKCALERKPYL
Put plainly: PBM E-score (8-mer binding enrichment) (E-score (-0.5 to 0.5)); higher = stronger / more preferred TF binding; most listed sequences are background and not binding sites. Particulars: protein concentration: 200 nM; construct: GST-full length. The method in brief:
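The E-score, a modified Wilcoxon-Mann-Whitney statistic, was computed by the Universal PBM Analysis Suite for every ungapped eight-base word pooled with its reverse complement. Scans behind it were normalised with masliner after bound GST-tagged yeast transcription factors were detected with fluorescent anti-GST. The proteins, at about 100-200 nM, had been applied to universal all-10-mer Agilent arrays made double-stranded by primer extension.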
As for CTACTGCA, the “PBM E-score” value was -0.158.
Turning to ATCACTGA, the “PBM E-score” value is -0.0167.
For the sequence GAAATATA, the “PBM E-score” value is 0.139.
In the case of CAAGAGAG, the “PBM E-score” value was -0.0256.
To CAGTCAGG belongs -0.206; to CGCCTGTC, -0.337.
Turning to AAGGCGTC, the “PBM E-score” value was -0.188.
For TAGATACA the value was -0.00833; for AACCACAG, 0.233; for ACCATGCC, 0.0392.
With GTCGAGGA, the “PBM E-score” value is -0.172.
CAGGCCGG: the “PBM E-score” value was -0.259.
Take ACGAAATA: the “PBM E-score” value was -0.0355.
With GCCGTACC, the “PBM E-score” value was 0.0363.
Consider CAGTCCGA, for which the “PBM E-score” value was -0.0499.
Take CCGTGGAG: the “PBM E-score” value was -0.0519.
Turning to CCTGCCCA, the “PBM E-score” value was -0.184.
Take CCCTCATC: the “PBM E-score” value was -0.191.
To CATGCGAA belongs -0.0569; to CTGTAAAG, -0.0122.
Regarding CCTCGCAG, the “PBM E-score” value is -0.0888.
Turning to ACGCCAAT, the “PBM E-score” value was 0.127.
Turning to ATTGTGAG, the “PBM E-score” value is 0.0852.
Regarding AATAGACG, the “PBM E-score” value was -0.163.
Regarding AGCGCATA, the “PBM E-score” value is -0.0298.
For AACTGCCA the value was -0.0896; for CCTTCGGA, 0.0786; for CGCTCAGA, 0.146.
For AGCATACG the value was -0.191.
Consider ATCCCACG, for which the “PBM E-score” value is -0.171.
In the case of CTTAGGTC, the “PBM E-score” value was 0.178.
As to CCTATAGC, the “PBM E-score” value is -0.0148.
As to ACGTCATA, the “PBM E-score” value is -0.0571.
In the case of GCCAGATA, the “PBM E-score” value is -0.0632.
As for CTAATATC, the “PBM E-score” value was 0.176.
As to ACCATCAA, the “PBM E-score” value came to 0.111.
For CCGTCAGC the value was -0.241.
Take CTCACTAA: the “PBM E-score” value is -0.0158.
Consider CGACTTTC, for which the “PBM E-score” value was -0.0833.
For GCACAGTA the value was 0.046.
To CATGGGAC belongs 0.0674; to GCAGGGCC, -0.152; to AACGGTCA, 0.324.
As for AGTCCTTG, the “PBM E-score” value is -0.0318.
In the case of GGACGGAC, the “PBM E-score” value is -0.141.
With GATGGCAA, the “PBM E-score” value is -0.0776.
With TAAAGCTA, the “PBM E-score” value was -0.124.
AGTGCCCA: the “PBM E-score” value is -0.135.
In the case of CGCCGCTA, the “PBM E-score” value amounted to 0.0114.
In the case of CCGAGACG, the “PBM E-score” value is -0.304.
With CGCAAGAA, the “PBM E-score” value is 0.216.
On to AACTGCCG, for which the “PBM E-score” value was -0.0311.
As for ATCGTATC, the “PBM E-score” value is -0.0177.
In the case of GCAAGAAA, the “PBM E-score” value was determined as 0.0794.
To AATACCGG belongs 0.101.
For TTAATCAA the value was 0.217; for GTACTATA, 0.209.
To CCGAGACC belongs 0.197; to CAGGAAAC, 0.0766.
AACTTACG: the “PBM E-score” value is -0.112.
Take CATCACCC: the “PBM E-score” value is 0.314.
ACAGCGCT: the “PBM E-score” value was -0.123.
As for GGAGCAAC, the “PBM E-score” value was -0.0826.
For AAGTTGAC the value was -0.00029; for CAAAAGCA, -0.027; for AGCGAAGC, -0.144.
To GTGAAAAC belongs 0.137.
For the sequence GAACCGAA, the “PBM E-score” value came to 0.0212.
For the sequence GGGAAACC, the “PBM E-score” value worked out at 0.324.
With AAATCCGG, the “PBM E-score” value is -0.0744.
Consider AGGTAAAT, for which the “PBM E-score” value is 0.171.
For the sequence CGGGGCTC, the “PBM E-score” value was -0.238.
Turning to GGTGATAA, the “PBM E-score” value stood at 0.183.
On to ACCAACCT, for which the “PBM E-score” value is 0.126.
For the sequence CTAAACAA, the “PBM E-score” value was determined as 0.00266.
Turning to ATCCCCCG, the “PBM E-score” value was -0.219.
On to CGTTAATC, for which the “PBM E-score” value was found to be 0.0807.
Consider CGAGGGGA, for which the “PBM E-score” value was -0.107.
For GCTATTAC the value was 0.0241.
For the sequence GGGAATAC, the “PBM E-score” value was -0.129.
For GGATGCCA the value was -0.224.
To GGTCAGTA belongs 0.148; to TAGCACTA, -0.0804.
For the sequence ACAGTCTA, the “PBM E-score” value is -0.0889.
Take CCACTTGA: the “PBM E-score” value worked out at 0.0482.
As to TCATAAAA, the “PBM E-score” value is 0.155.
